± gives the standard deviation of the averaged measurements. The list shows a part of the results.

The subject of this assay is PfAP2-LT AP2 domain (GST-tagged). The assay can be described thus: gcPBM binding intensity (ln(normalized median fluorescence intensity)); higher = stronger DNA binding. The method in brief:
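After 1 h on an Agilent 4 × 180k array of primer-extended double-stranded 36-bp intergenic genomic probes and negative controls, bound GST-tagged P. falciparum DNA-binding domains were detected with Alexa488 anti-GST antibody and scanned at 488 nm. The domains had been expressed in E. coli, and binding took place in 1× PBS with 1% milk, 0.2 mg/ml BSA, 0.5% salmon testes DNA and 0.03% Triton X-100. Binding intensity is the highest Masliner-normalised natural-log median intensity across replicate spots of either probe orientation.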
For “TGTATAAGGTTTTTACGTTTTGAAGGATGTATTGTT [CACACA_negctrl_site1245]”, the “gcPBM binding intensity (ln)” value came to 8.82 ± 0.41.

As for “TAGGTCATATTTTTTGCACACAAAAAAAAATATAAA [CACACA_site3380]”, the “gcPBM binding intensity (ln)” value turned out to be 8.85 ± 0.42.

In the case of “TTTTTCCAATCAGATGCATGTTACTATATTTGGTTC [TGCATGCA_site52]”, the “gcPBM binding intensity (ln)” value is 8.89 ± 0.39.

As for “CACCTCAATATTCACATACACACAATATCATCGAAG [CACACA_site1675]”, the “gcPBM binding intensity (ln)” value was determined as 9.14 ± 0.34.

Take “AAGGAAAAAACAAATACACACAAAAACGCATTATAA [CACACA_site3466]”: the “gcPBM binding intensity (ln)” value stood at 9.24 ± 0.4.

“ATGAACTTATTTTAGTGTACTAAAAAATATGACTTC [XGTACX_site470]”: the “gcPBM binding intensity (ln)” value was determined as 8.5 ± 0.55.

On to “TTTTTTTTTTTTGTAACATGCAAACAACAATATGGG [TGCATGCA_site695]”, for which the “gcPBM binding intensity (ln)” value amounted to 8.65 ± 0.42.

As for “GGGAGGATATTACACAGTACCCAGGAAATCTACGGA [XGTACX_site4874]”, the “gcPBM binding intensity (ln)” value was 8.81 ± 0.5.

For “TATGTTCCGAAGGTTGTACACACATAGAAATATACA [CACACA_site9285]”, the “gcPBM binding intensity (ln)” value was determined as 8.98 ± 0.42.

As to “ATGTAATTGTATACATGTACGCAAACACAAAAGCAT [XGTACX_site6771]”, the “gcPBM binding intensity (ln)” value is 9.3 ± 0.47.

With “TTTTGTTCATACAAATTGGAACAAGACAAAAATATA [XGTACX_negctrl_site327]”, the “gcPBM binding intensity (ln)” value is 8.41 ± 0.34.

Take “GTAAGTATATATAATAGTACATATATATTAATATAT [XGTACX_site4314]”: the “gcPBM binding intensity (ln)” value was 8.91 ± 0.41.

As to “TACATAATTTTAATCACACACAAACAAACACATACA [CACACA_site194]”, the “gcPBM binding intensity (ln)” value was determined as 9.42 ± 0.2.

In the case of “CATATTAATACAGAATGTACGGATAACAAACTGTTT [XGTACX_site7935]”, the “gcPBM binding intensity (ln)” value worked out at 8.86 ± 0.36.

As to “TTTTTTTTTTTGGTTACACACATTTGTATATTCTCA [CACACA_site134]”, the “gcPBM binding intensity (ln)” value is 9.11 ± 0.4.

For the sequence “GGTCATCATCGGTATTGTACAAAAATGTGAAAATTA [XGTACX_site639]”, the “gcPBM binding intensity (ln)” value turned out to be 8.73 ± 0.48.

On to “ATAATTATATGATGAGTGCACAATAAAAATATCGTT [GTGCAC_site9920]”, for which the “gcPBM binding intensity (ln)” value was 9.04 ± 0.41.

Regarding “TTTTATTTAGGAGGTGCATGTAATACGGAACATAAT [TGCATGCA_site827]”, the “gcPBM binding intensity (ln)” value came out at 8.73 ± 0.3.

As to “CCATAACTCCTATGCACACATAAATATTACAGAGAT [CACACA_site5984]”, the “gcPBM binding intensity (ln)” value is 9.09 ± 0.42.

As for “TTTGATTTTAATGTGTGTACACATTTATTTATATAA [XGTACX_site4806]”, the “gcPBM binding intensity (ln)” value is 9.13 ± 0.51.

“GATTTATATTTTAAAAGTACAAGTTAAAATAAAAGT [XGTACX_site7059]”: the “gcPBM binding intensity (ln)” value came out at 8.61 ± 0.5.

“ATATAAGTATAATTATGTACTTATACTTATATAAAT [XGTACX_site5585]”: the “gcPBM binding intensity (ln)” value is 8.62 ± 0.41.

As to “AATATAAGATTATTATGTACATAATAAATATGTATT [XGTACX_site4773]”, the “gcPBM binding intensity (ln)” value came to 8.79 ± 0.4.

As to “ATATAATATCTGTATACACACATATTATATAATATT [CACACA_site5940]”, the “gcPBM binding intensity (ln)” value worked out at 9.09 ± 0.33.

With “CACATTTCTGTAGTTGCATGTAGAAAAAAAAAAAAA [TGCATGCA_site810]”, the “gcPBM binding intensity (ln)” value is 8.51 ± 0.44.

Turning to “AATACAATTGAAAATTGTACTTTGTTTTTTATAAAT [XGTACX_site4080]”, the “gcPBM binding intensity (ln)” value turned out to be 8.42 ± 0.4.

As to “TTTTGAGAAAAAATAAAATAATAAATAAAAATACAT [XGTACX_negctrl_site66]”, the “gcPBM binding intensity (ln)” value amounted to 8.52 ± 0.48.

With “CATATAATAAATAATACACACATATTGGAAATATAT [CACACA_site3212]”, the “gcPBM binding intensity (ln)” value is 9.08 ± 0.38.

Turning to “TTTATTTATTTATATTTTTTTATATAATTTATATAT [GTGCAC_negctrl_site301]”, the “gcPBM binding intensity (ln)” value is 8.54 ± 0.46.

Regarding “AAAGGTATATATGTGTGTACATATATATATATATAT [XGTACX_site5629]”, the “gcPBM binding intensity (ln)” value stood at 9.955 ± 0.0071.

“AAAAATAAAAAAAAATTAAAATATATATATTTTGTT [TGCATGCA_negctrl_site102]”: the “gcPBM binding intensity (ln)” value is 8.45 ± 0.44.

For the sequence “AACATATTTATATACACACACATATTTATATGAAAT [CACACA_site6268]”, the “gcPBM binding intensity (ln)” value is 9.32 ± 0.34.

For the sequence “GAGAGGATACATACATGTACATAAATATTTTATTTT [XGTACX_site5129]”, the “gcPBM binding intensity (ln)” value worked out at 8.86 ± 0.46.

On to “AGGAAAAAAAGTAGCACACAAATATTTATAATATAT [CACACA_site2437]”, for which the “gcPBM binding intensity (ln)” value came to 9.11 ± 0.57.

For the sequence “CGTAGCCGCACTAACACACACAAATATACGCAATCA [CACACA_site2898]”, the “gcPBM binding intensity (ln)” value came to 9.39 ± 0.43.

With “AAAAAAAAAAAAAATAATAAATAAATAAATAAATAA [GTGCAC_negctrl_site505]”, the “gcPBM binding intensity (ln)” value was 8.29 ± 0.71.

On to “ATATTTTGGGTGTTGTTTTTTTTTAAAACTCTTTAA [CACACA_negctrl_site1255]”, for which the “gcPBM binding intensity (ln)” value amounted to 8.67 ± 0.42.

In the case of “TTACTATTTCACTGTGCATGCAACAAAAATCTATCT [TGCATGCA_site808]”, the “gcPBM binding intensity (ln)” value came to 8.9 ± 0.26.

Turning to “ATTAGTTTATATGAATGATTTTTCTTTTTTTTTTTT [CACACA_negctrl_site88]”, the “gcPBM binding intensity (ln)” value was 8.47 ± 0.57.

With “TTATTTTATCACACATGTACATATGTTAATTTTTTT [XGTACX_site5598]”, the “gcPBM binding intensity (ln)” value was 8.91 ± 0.49.

Take “AAATTTATATATAGTTGTACAAAAATATGTTTCGTA [XGTACX_site4801]”: the “gcPBM binding intensity (ln)” value was 8.8 ± 0.54.

For “AAAATAAAAAGAAATAAATTAACAGTAAGGAAAAAA [CACACA_negctrl_site1105]”, the “gcPBM binding intensity (ln)” value is 8.69 ± 0.57.

On to “TGAATAATCAATAGTACACACATATAAATATATATA [CACACA_site2813]”, for which the “gcPBM binding intensity (ln)” value was 9.05 ± 0.35.

With “AAGAAAAGTAAATATGCATGTAGGGTAGGTTATTTT [TGCATGCA_site46]”, the “gcPBM binding intensity (ln)” value stood at 8.93 ± 0.54.

For the origin of these results see the supplement of paper PMC11417369.
